{"source": "paper PMC6919601", "about": "“Identification of Plasmodium dipeptidyl aminopeptidase allosteric inhibitors by high throughput screening” (PLoS ONE, 2019)", "note": "Several values for one entry are separate records, joined by “and”; a condition that tells them apart may be missing. Equal entries are not always repeated. The whole screen tested about 110,000 compounds, of which about 230 (0.21%) showed an effect of 50% or more. The list shows a part of the results.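 Note: 30 min substrate incubation versus DMSO and 10 µM JCP410 controls.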"}
{"target": "DPAP1 (Plasmodium falciparum, UniProt Q8IIJ9)", "sequence (Q8IIJ9 whole entry, looked up)": "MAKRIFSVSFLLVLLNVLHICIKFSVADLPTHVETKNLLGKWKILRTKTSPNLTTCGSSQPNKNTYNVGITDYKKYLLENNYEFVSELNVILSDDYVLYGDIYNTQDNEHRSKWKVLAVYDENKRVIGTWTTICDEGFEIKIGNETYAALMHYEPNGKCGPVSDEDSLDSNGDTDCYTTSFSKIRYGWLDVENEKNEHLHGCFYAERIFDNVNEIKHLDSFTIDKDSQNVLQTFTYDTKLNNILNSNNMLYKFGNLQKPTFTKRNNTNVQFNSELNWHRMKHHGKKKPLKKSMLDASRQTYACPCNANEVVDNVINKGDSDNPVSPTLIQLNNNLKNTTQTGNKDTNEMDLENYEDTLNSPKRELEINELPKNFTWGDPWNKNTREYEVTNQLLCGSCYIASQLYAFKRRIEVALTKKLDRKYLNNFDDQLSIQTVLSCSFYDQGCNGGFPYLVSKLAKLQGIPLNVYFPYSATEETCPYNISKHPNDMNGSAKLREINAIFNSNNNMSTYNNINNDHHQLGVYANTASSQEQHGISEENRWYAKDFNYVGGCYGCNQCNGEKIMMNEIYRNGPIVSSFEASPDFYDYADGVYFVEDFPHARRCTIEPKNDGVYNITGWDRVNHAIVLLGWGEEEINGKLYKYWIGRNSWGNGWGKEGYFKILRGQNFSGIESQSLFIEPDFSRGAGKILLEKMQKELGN", "assay": "primary screen, percent inhibition; read by cleavage of a fluorogenic dipeptide substrate; higher = more effect of the substance", "design": "species or system P. falciparum D10 trophozoite lysates; single well"}
{"smiles": "COc1cccc(C2C3=C(O)CC(C)(C)CC3=Nc3ccccc3N2C(=O)C(F)(F)F)c1OC", "note": "(centres unmarked)", "% Inhibition @ 10 uM": "2.01%"}
{"smiles": "Clc1ccccc1-c1nnc2c3cnn(Cc4ccccc4)c3ncn12", "% Inhibition @ 10 uM": "2.95%"}
{"smiles": "COc1ccc(C)cc1N(CC(=O)N1CCOCC1)S(=O)(=O)c1ccccc1", "% Inhibition @ 10 uM": "2.97%"}
{"smiles": "CCCN(CCO)Cc1ccc(OCC)cc1", "% Inhibition @ 10 uM": "1.62%"}
{"smiles": "COCCNC(=O)CSCc1nc(-c2ccccc2C)oc1C", "% Inhibition @ 10 uM": "0.689%"}
{"smiles": "CN1CCCC1CCNC1CC2CCC1C2", "note": "(centres unmarked)", "% Inhibition @ 10 uM": "1.62%"}
{"smiles": "CC1CN=C(/C=C(\\O)c2ccccc2)C(=O)N1", "note": "(centres unmarked)", "% Inhibition @ 10 uM": "5.67% and 0.565%"}
{"smiles": "O=C(CCC1CCCCC1)Nc1c2c(nn1-c1cccc(Cl)c1)CS(=O)(=O)C2", "% Inhibition @ 10 uM": "9.36%"}
{"smiles": "COCCN(Cc1ccc(C)c(Br)c1)S(=O)(=O)c1cc(-c2cc(C)no2)ccc1C", "% Inhibition @ 10 uM": "-3.42%"}
{"smiles": "CNC(=O)C1COc2ccccc2O1", "note": "(centres unmarked)", "% Inhibition @ 10 uM": "-0.239%"}
{"smiles": "CCOC(=O)c1cc(-c2ccc(F)cc2)n(CC(=O)N2CCC(C)CC2)c1C", "% Inhibition @ 10 uM": "0.387%"}
{"smiles": "CN(CCNS(=O)(=O)c1ccc(-c2ccc(O)nn2)s1)C1CCCCC1", "% Inhibition @ 10 uM": "-3.97%"}
{"smiles": "O=S(=O)(Cc1ccccc1)NCc1ccc2c(c1)OCO2", "% Inhibition @ 10 uM": "-3.45%"}
{"smiles": "CC(=O)NS(=O)(=O)c1ccc(NC(=O)C(C)Oc2ccc(Cl)cc2Cl)cc1", "note": "(centres unmarked)", "% Inhibition @ 10 uM": "-1.28%"}
{"smiles": "COCCCNC(=O)CNC(=S)N(Cc1cccs1)C1CCCCC1", "% Inhibition @ 10 uM": "-0.406%"}
{"smiles": "O=C(O)c1nn2c(C(F)(F)F)cc(-c3ccccc3)nc2c1Cl", "% Inhibition @ 10 uM": "-4.15%"}
{"smiles": "CC(C)=C1C2CCC1C1C(=O)N(c3ccc4c(c3)OCO4)C(=O)C21", "note": "(centres unmarked)", "% Inhibition @ 10 uM": "-2.07%"}
{"smiles": "CC1(C)CC(=O)C(/C=N/CC2CCN(C(=O)Cc3ccccc3)CC2)=C(O)C1", "% Inhibition @ 10 uM": "3.72%"}
{"smiles": "CCc1cccc(C)c1NC(=O)c1ccc(CN2CCOCC2)cc1", "% Inhibition @ 10 uM": "-9.02%"}
{"smiles": "COc1ccccc1CN1CCCN(C)CC1", "% Inhibition @ 10 uM": "-0.127%"}
{"smiles": "O=C(NCc1ccc(F)cc1)c1ccc(C(=O)NCc2ccc(F)cc2)nc1", "% Inhibition @ 10 uM": "2.03%"}
{"smiles": "Cc1ccc(NC(=O)/C(=C/c2ccco2)NC(=O)c2ccc(Br)o2)cc1", "% Inhibition @ 10 uM": "2.36%"}
{"smiles": "CCCCN(CC)CCCNC(=O)CS(=O)Cc1nc(-c2ccc(OC)c(OC)c2)oc1C", "note": "(centres unmarked)", "% Inhibition @ 10 uM": "-6.64%"}
{"smiles": "COc1cccc(C(=O)Nc2cccc3ccccc23)c1", "% Inhibition @ 10 uM": "2.6%"}
{"smiles": "Brc1cccc2c3c4n(c12)CC1COC4(CCC3)O1", "note": "(centres unmarked)", "% Inhibition @ 10 uM": "3.74%"}
{"smiles": "CCC(Sc1nc2cccnc2[nH]1)C(=O)NCc1ccco1", "note": "(centres unmarked)", "% Inhibition @ 10 uM": "3.21%"}
{"smiles": "CN(C)CC(C)(C)CNC1CCN(CCc2ccccc2)CC1", "% Inhibition @ 10 uM": "-3.82%"}
{"smiles": "COC(=O)C1=C(C)NC(=O)CC1c1ccc(F)c(F)c1", "note": "(centres unmarked)", "% Inhibition @ 10 uM": "-3.63%"}
{"smiles": "Clc1cccc(-c2nnc3sc(-c4ccco4)nn23)c1", "% Inhibition @ 10 uM": "-2.21%"}
{"smiles": "Cc1ccc(C2CC(=O)NC(SCC(=O)Nc3ccc(C)cc3Br)=C2C#N)cc1", "note": "(centres unmarked)", "% Inhibition @ 10 uM": "-4.41%"}
{"smiles": "COCCNC(=O)C1CCCN(c2nnc(C)c3c(C)n(-c4ccc(OC)cc4)nc23)C1", "note": "(centres unmarked)", "% Inhibition @ 10 uM": "3.25%"}
{"smiles": "Cc1ccc(-n2cc(C#N)c(C(=O)c3ccccc3)n2)cc1", "% Inhibition @ 10 uM": "-2.56%"}
{"smiles": "CCc1ccc(CNCc2c(C(=O)O)c(C)n(Cc3ccccc3C)c2C)cc1", "% Inhibition @ 10 uM": "-11.3%"}
{"smiles": "O=C(Cn1nc(-c2ccc(Cl)cc2)ccc1=O)N1CCN(Cc2ccccc2)CC1", "% Inhibition @ 10 uM": "-3.58%"}
{"smiles": "O=C(c1ccc([N+](=O)[O-])cc1)N1CCN(c2cccc(Cl)c2)CC1", "% Inhibition @ 10 uM": "-4.3%"}
{"smiles": "CN1C(=C2C(=O)NC(=O)NC2=O)Sc2ccccc21", "% Inhibition @ 10 uM": "-1.2%"}
{"smiles": "CCN1C(=O)CC(C(=O)Nc2ccccc2OC)S/C1=N\\c1cccc(C(F)(F)F)c1", "note": "(centres unmarked)", "% Inhibition @ 10 uM": "3.8%"}
{"smiles": "Cc1ccc2nc(O)c3cc(C(=O)NCc4ccc(F)cc4)sc3c2c1", "% Inhibition @ 10 uM": "3.32%"}
{"smiles": "CCOC(=O)C1=C(C)N(C)C(C)=C(C(=O)OCC)C1c1ccncc1", "% Inhibition @ 10 uM": "3.47%"}
{"smiles": "CCCN1CCC(N2CCCCCCC2)CC1", "% Inhibition @ 10 uM": "1.38%"}
{"smiles": "CCOC(=O)N1CCN(CC(C)c2ccccc2)CC1", "note": "(centres unmarked)", "% Inhibition @ 10 uM": "3.35%"}
{"smiles": "Cc1cc(C)c(NC(=O)c2ccccc2)c(C)c1", "% Inhibition @ 10 uM": "-0.546%"}
{"smiles": "O=C(NCCCN1CCCC1=O)C1CCN(c2nc3ccccc3n3cccc23)CC1", "% Inhibition @ 10 uM": "-2.27%"}
{"smiles": "O=C(C1CC1c1ccccc1)N1CCC(c2ccccc2)C1", "note": "(centres unmarked)", "% Inhibition @ 10 uM": "1.63%"}
{"smiles": "COc1ccc(C(=O)Nc2ccc3ccccc3c2)cc1", "% Inhibition @ 10 uM": "-1.48%"}
{"smiles": "COc1ccc(/N=C2/S/C(=C\\c3cc(Cl)ccc3O)C(=O)N2C)cc1", "% Inhibition @ 10 uM": "11.8%"}
{"smiles": "CC(C)C[C@H](NC(=O)OCc1ccc2ccccc2c1)C(=O)NCC#N", "% Inhibition @ 10 uM": "0.174%"}
{"smiles": "COc1ccccc1N1CCN(C(=O)c2ccc(C)cc2)CC1", "% Inhibition @ 10 uM": "-4.4%"}
{"smiles": "CCc1cc(=O)oc2cc(C)cc(O)c12", "% Inhibition @ 10 uM": "1.37%"}
{"smiles": "CCNCC1OCCc2ccccc21", "note": "(centres unmarked)", "% Inhibition @ 10 uM": "-10.2%"}
